Results as given in the RNAGym collection of RNA variant scans (doi:10.1101/gad.245936.114).
Variants at the background level are over-represented here.

B1: tRNA (parent)
chain: CUCUCGGUAGCCAAGUUGGUUUAAGGCGCAAGACUUUAAUUUAUCACUACGAAAUCUUGAGAUCGGGCGUUCGACUCGCCCCCGGGAGAUUUUUUCCUCGAGCAA

Variants of: B1
Assay: nonsense suppression (GFP-seq) (ratio to wild type); higher = more function; SUP4oc tRNA, yeast GFP reporter sort-seq
Method in brief: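 Yeast carrying genome-integrated SUP4oc tRNA variants from a library with ~3% random mutations were grown in raffinose/galactose medium with 80 mg/L adenine. Each strain also carried a galactose-driven GFP ochre reporter and RFP. Cells were sorted into GFP/RFP bins, and each bin was Illumina-sequenced (phred ≥30). Nonsense suppression (GFPSEQ) is the bin median GFP/RFP, weighted by each variant's estimated cell share per bin, relative to wild-type SUP4oc; variants needed ≥100 reads and ≥30 cells.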

Nonsense suppression, 1.1:
U4G C75U

Nonsense suppression, 0.0449:
U4C A9G G15A A30U

Nonsense suppression, 0.774:
U4C A13G

Nonsense suppression, 0.0272:
C5A A30G

Nonsense suppression, ≤ 0.026:
U4C A24G U55A
U4A U17A G61C
C5A G7U G73A
U4C G7C U8A A33C U57G
U4C A23G A87C
C5A A14G A30G G85A
U4G C11G C27G
U4G G15C G85A
C5A A62U G88U
U4G G59C U76C
C5A A14C G86A
U4A U76A A87G
U4C A62C
U4C A24G A54G G67C
U4G A31G U63C
U4A G15U G88C
U4C U17G G25C G66U U70C G84U
U4G G7U C80G
U4C A9U A54U G69A C81G
U4C U8C
C5A A23C C27G U63G C82U G84A
U4G A60U G65C
U4G C27A C29A C79A C80G G85A
C5A A23C A31G G61A
U4C A74G C80A
C5A G10A A74C
U4G U8G G18U A23G C29U G67A C75U
U4G A9U U17G G65A G73A
U4G A24G C27U A89C
U4G U17A G19U G84A
U4C U21A A31C G65A G73C C81U
C5A A60G U70G G86C
U4C U58G G59U
U4G G18C G28A A74G
U4G C12A G69U C81A
C5A A24G C83G
U4G C11U C75U
U4C G66U G67C
U4C U70G
U4G C12U G15U G25U A62G
U4A U57C A62C A74G
U4C G18A C72G
U4C G61U C79G A89G
U4A G26A
U4A G26U
U4G A54C U58A A74C
U4G A54U C72U C82G G86A
U4C U8A U71A
U4G G7U C34U
C5A A60U
U4G U63C C64A
U4C A31G G65A
U4C G28C C79G
U4C G85C
C5A A14U A23C
U4C G7C G19U U57G
U4G A31G G73A
U4C A9C G65C C82U
U4G C12A U58A
C5A A30G C34G U70C
C5A C11U U57A A62U C75A
U4G G25U
C5A C11G G18A
U4G U16A C56G U58C
U4G C27U G88U
U4C U17G U76A C83A
U4G C12G G15U A24G G86C
C5A C11U C34G
U4C G15U
U4C A89G
U4A G32A
U4A G25A G26C U55A U70G
U4C A23U G59U G61C C68U
U4C U35G G61A G78A C83A G86C
C5A A9U U70G A89C
C5A A14U
C5A A14G
U4C C12G U55G G86U
U4C G19A A24U G66A A87G
U4G G6U U8C C12G C29A C56G
C5A C27G G73A
U4C A24C U55G A62C U71A U76A
U4A G78A
U4C C12G U55A G73C G85C
U4G G25U U70C U76C
U4C C64U G85C
U4A U21G C79U
U4C U22G G26U G73C G78C
U4C A14C U57C A62U C68A
U4C C11G A13G G26U
U4C C72A
U4C G26U C34G U35A C82A
U4G G18C C77A
U4G G66C
C5A C11G G67U
C5A G7C
C5A G7U
U4G C5U C27G
U4A G28U C77G C83U
C5A G7A U17A A54C U55C
U4G A30U C72A
U4G A24G G28C U57A C64U
U4C C82A A89G
U4A G15A U22G C34U A74G C83U G86A
U4G C11G
U4G C11A
C5A C11G C27U G28A U70C
U4A G19U
U4C G10A C34A G65A U70C
U4C A9U G25U A31C
U4A G84C
U4G A54C C56U
U4G G19U G66A
U4G G86U
U4G G86C
U4C A23G A33G G67A
C5A A62G
C5A A62U
U4A U57G
U4C U17G G18U A31U
U4G U8A G69U U76G
U4A U20C A31U U71G C80A
U4C G6A A23G
C5A A9U G66C
U4A U21A C68G
U4A U20G G32C
C5A A60C C79A
U4G U35G
U4C C11A
U4A U16A G73U C83A
U4G A33G G73U
U4G U35G C80A
U4G A24G C77U
U4C G66A A89U
C5A A13C A33U U55G C72U
C5A C11G
U4G U63A G65C
C5A C79A G88A
U4G G7U
U4G C5U G65U C79U G84C
U4C A9G U58A
U4A U35G U57A
C5A G6A U76A
U4C A31U U57G G88U
U4G U8G A9G G25U G85U G86U A87C
U4A G69C
U4G A14C C29U U57C A60U
C5A G7A G61C G78C
U4C A33G C34U G67U C80U C82A
U4G A30U G67U C75U G88C A89G
U4G G19C A23C
U4A U8A U16G G86U
U4G A60G U71C C72A G73C C79A
C5A C11G C80A G84C
U4A U8A
U4A U70C
U4G U8A G66C
C5A C12U C34U U57C G67A
U4G G61C C79U C82G
C5A G15A G26U
U4G U35A G66A C83U A89C
U4C G7U A31U C34A U58A G86C
U4C A23U U55A
C5A C64G C72G
U4A G59C G84U
U4C G25C G59A C80A
U4G U57G C80G
C5A G15U A33C U70G
U4C A24G G66C C68U
U4C A74C G85U
U4C G25U C64G G67C
U4G G32A A33G
C5A C75U C79A
U4A U17G G69A G78U
U4C C64G
U4C G28U
C5A C29U A31U A62U U76A
U4C G18U A31C C77G
C5A C29G U55A G65A
C5A A54G C64G
U4G C5U G15C C34U G73U
U4G G61U U63C
U4G A54C
U4G U20A G26C G67U
U4A G86U
U4C C11A U63C
C5A A30G C68G U70A C77A A87G
U4G U21C G65A
U4G G7C G88A
U4C C27U G67A U71G
U4G G25C U58A
U4C C77G
U4G A24U A54G C56G
U4C U63C U71A
C5A C12G U57A C81G
U4C G18U
U4A U21A G66U
U4C U16A U58G G67U U76A
C5A A14G G32U
C5A A60C A62U
U4A G61C G69U
U4G C11U U58A G69C
U4G A13U C79A
U4C C11U C34G C82U
U4G U17G U63G
U4G U21A A23C G25U C29A A31G U55A U63C
U4A U16G G59C A74G
U4G C34A G67A C75A
C5A G10C C11G C12A G15A A89G
C5A G7U G18C U20G A23U
C5A A9C G18C U21C G26A G59C
C5A G10A C34A A62U U63A U71C
U4G C12G G85C A89G
C5A A30U G59C C81U
U4A G59U A60C
U4G A54U C77G
U4A U17C G28C U35A C79A C82A
U4G A31G G67U C80A
U4C A14G G61A U71A
U4C U21G G61C
C5A C80A
U4C U17C G26U G61U
U4G A9U A31C U63G
C5A A23C G26U C56G U57G G67C
U4C A24U A30G U57A G66A C75A
U4C U21G C56U U63C G65A
U4A G18A
U4G G28A G65A U71G A87C
C5A A24U G66A
U4C G10U C12A U76C
C5A G7U U20G A74U
C5A A23C C27G G61U
C5A G7C G85U
U4C A23C G25U U71G G86U
U4G A23G G26C
U4C U22C C56A C79A A87U A89C
U4G A23U
U4C G15C G19U U21C C29G A62C
U4G A14G C79G
U4C G32C U35A
U4G C5G U17C U63C A74U
U4G U16C U35G A62U C72A
U4C C5G A14C A31U
U4G C5U U22C U55A U76G
U4C G25U C56U U63G
U4G G19C U22G G66C A89C
U4C G7U U8C G69C
U4C C5A U17C G28C U35A C79A C82A
U4C C12A A14U G25C
U4G A23C G32U G59C
U4G A13C U35G G61A A74C C80G
U4C U71C C81A A89C
C5A A33G G88A
U4G A33U U57A G69A U76A
U4C U16G G18U U20C C56G
U4A U58A
U4G G6U U21C U55C C79G
U4G G18U G66U C72G
U4G G59U
U4C C34A A54U
U4C C11G C12U U57C
U4G U76G G84U
C5A G7A U20G C80A
U4G U63C C82A
U4C U17C A23U
U4C A9G G10A U20A
C5A G7U U17C
U4C G19C
U4G U22G U57A
C5A C29A A30U
C5A A23U A24C G28A
C5A A14U G88U
U4G A13U C29A
C5A C12G
U4C U55A
U4C A13G A14U G25U C29A A33G
C5A A87G
C5A A87C
U4G A30C U70A C82U
U4C A9C C82A
U4G G19U G86C
U4C G7A C27G
C5A A9G
U4C G15U U17G U57A
U4G U21G G78A G84A
U4G G19A A30C G88A
U4G G67A C68A
C5A C11U A23U A60U

Nonsense suppression, 0.0723:
U4G C77U

Nonsense suppression, 0.191:
U4G A13U

Nonsense suppression, 0.189:
U4G G61A

Nonsense suppression, 0.469:
U4G A54U

Nonsense suppression, 0.0622:
U4G C68G

Nonsense suppression, 0.792:
U4C C27U

Nonsense suppression, 0.0311:
U4G C12G

Nonsense suppression, 0.215:
U4A U16A

Nonsense suppression, 0.21:
U4G U20G U22A

Nonsense suppression, 0.492:
U4G U22G

Nonsense suppression, 0.558:
U4G G61A C75A

Nonsense suppression, 0.205:
U4C C27U G61A

Nonsense suppression, 0.174:
U4A U17A

Nonsense suppression, 0.723:
U4C G25C

Nonsense suppression, 0.0309:
U4G U20C A33G

Nonsense suppression, 0.202:
U4C A9G A13G U76C
U4C G7U

Nonsense suppression, 1.17:
U4C C83U

Nonsense suppression, 0.0387:
U4G A31U

Nonsense suppression, 0.86:
U4C G61C

Nonsense suppression, 0.0355:
U4G C56U

Nonsense suppression, 1.05:
U4C A13C

Nonsense suppression, 0.84:
U4C A24U

Nonsense suppression, 1.02:
U4C A9C

Nonsense suppression, 1.06:
U4C A24C

Nonsense suppression, 0.057:
U4G G18C A24G G61C C81A

Nonsense suppression, 1.04:
U4C U17C
U4C A60C
U4C A31U
U4C G73A

Nonsense suppression, 1.07:
U4C A9U

Nonsense suppression, 0.0479:
U4G C77A

Nonsense suppression, 0.162:
U4C G86C
U4C G25A

Nonsense suppression, 0.0946:
U4C U63G

Nonsense suppression, 1.13:
U4C C68U U76C

Nonsense suppression, 0.834:
U4G U20G

Nonsense suppression, 0.959:
U4C G6U

Nonsense suppression, 0.746:
U4C G15A

Nonsense suppression, 0.0797:
U4G A13G U16C

Nonsense suppression, 0.45:
U4G U17C

Nonsense suppression, 0.97:
U4C U16C A31U
